# According to the supplement of paper PMC4166925:
# ± gives the standard deviation of the averaged measurements. In all, about 33,000 sequences were measured (“E-score (dimensionless, -0.5 to 0.5)”: median about -0.046, highest 2% from about 0.36 on). The list shows a part of the results.
# System: T1, SpTbr T-box DNA-binding domain (GST fusion)
# T1 sequence: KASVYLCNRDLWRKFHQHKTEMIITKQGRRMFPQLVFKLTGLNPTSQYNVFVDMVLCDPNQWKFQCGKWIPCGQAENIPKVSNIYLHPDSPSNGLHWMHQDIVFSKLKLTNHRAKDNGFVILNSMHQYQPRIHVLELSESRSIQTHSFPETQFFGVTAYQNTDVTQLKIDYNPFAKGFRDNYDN
# Assay: PBM E-score of 8-mer (E-score (dimensionless, -0.5 to 0.5)); Tbr is Tbrain of the sea star Patiria miniata (Pm) or the sea urchin Strongylocentrotus purpuratus (Sp); higher = stronger binding preference; most listed sequences are background and not binding sites
# Conditions: the construct has about 5 more residues each side
# Procedure, shortened: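 Using the Universal PBM Analysis Suite, every ungapped 8-mer received an enrichment E-score averaged over duplicate arrays. Probe intensities came from double-stranded Universal Agilent oligonucleotide arrays incubated with 200 nM GST-fused Tbr T-box DNA-binding domain in PBS (pH 7.5). That protein was expressed in BL21 E. coli at 20 °C and purified by glutathione affinity chromatography.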
row,Sequence,PBM E-score of 8-mer
1,CTCAAAGC,-0.123 ± 0.062
2,AGTTGGAA,-0.116 ± 0.06
3,AATCGGTA,-0.203 ± 0.016
4,TCACCTAA,0.301 ± 0.018
5,CATTCGCA,0.384 ± 0.0068
6,GAATGTGA,0.275 ± 0.024
7,GAGAGCTC,-0.132 ± 0.08
8,AGATCCAG,-0.0581 ± 0.055
9,ATCAGTTC,0.00551 ± 0.05
10,AATCGCGT,0.194 ± 0.039
11,CTCCACTA,0.0717 ± 0.054
12,CGCCAGCA,0.0539 ± 0.1
13,TATATGCA,-0.113 ± 0.014
14,GTAGTAGA,-0.226 ± 0.0061
15,CAACAACA,0.243 ± 0.087
16,CAGTGGAC,-0.134 ± 0.018
17,CGGAGCAG,0.0439 ± 0.035
18,ATGCCTCA,-0.199 ± 0.051
19,GCTGGCGA,0.0541 ± 0.0059
20,TAGTCGAA,-0.00342 ± 0.047
21,AGTACGAA,0.00453 ± 0.015
22,CGGCGAGA,0.0865 ± 0.029
23,ATGCCACC,0.276 ± 0.036
24,CTACATAC,-0.181 ± 0.086
25,ATTATAGC,-0.13 ± 0.028

row,Sequence,PBM E-score of 8-mer
1,CCTGCATC,-0.2 ± 0.0089
2,AATGCCAG,-0.252 ± 0.051
3,ACGATACT,0.0112 ± 0.024
4,ATGCGTAG,-0.11 ± 0.011
5,GATTTAAC,-0.144 ± 0.031
6,CTACGGCA,-0.152 ± 0.041
7,GTCGTTCA,0.213 ± 0.0094
8,CCGGCCAA,-0.208 ± 0.042
9,GGTTTCTA,-0.145 ± 0.013
10,CTGTGTTA,0.195 ± 0.079
11,ATTATCCA,-0.11 ± 0.0037
12,ATTAATCG,0.0316 ± 0.06
13,GGCTCTGA,-0.0838 ± 0.0016
14,GTGGGGCA,-0.108 ± 0.036
15,ATCACTTA,0.0863 ± 0.053
16,CTGTAGGC,-0.1 ± 0.053
17,TCTCATCA,0.19 ± 0.015
18,CACGTTAC,0.22472 ± 0.00017
19,CTTACTTA,-0.127 ± 0.026
20,CTACACTA,0.152 ± 0.058
21,GGTGTAAA,0.436 ± 0.012
22,ATAGTTAC,-0.214 ± 0.036
23,ACAGGTCG,0.15 ± 0.0023
24,AACCAACC,-0.0537 ± 0.047
25,AATTGTGG,0.118 ± 0.022

row,Sequence,PBM E-score of 8-mer
1,AAGACACT,-0.0609 ± 0.0052
2,AGGTCTGG,0.0378 ± 0.021
3,ATATACCC,-0.159 ± 0.067
4,CGCGAGCG,0.251 ± 0.061
5,ATGAGAAT,-0.0523 ± 0.014
6,CTATACAG,-0.172 ± 0.045
7,CGCACGAG,0.139 ± 0.036
8,AGTTCTTA,-0.119 ± 0.061
9,GGTTATAC,0.0871 ± 0.041
10,CACGTCTA,0.127 ± 0.024
11,CGGTGCGC,-0.0128 ± 0.062
12,CACTGCTC,0.0763 ± 0.026
13,GCACCCTA,0.118 ± 0.032
14,AATCCGTA,-0.105 ± 0.056
15,AATCTTTC,-0.175 ± 0.021
16,GTATGAAC,0.0223 ± 0.045
17,AATCACTG,0.118 ± 0.03
18,ACACTCGG,0.234 ± 0.062
19,GCTGGGAC,-0.115 ± 0.086
20,ATACACTG,-0.112 ± 0.12
21,GACATACC,-0.121 ± 0.024
22,AGAAAGCT,0.103 ± 0.04
23,CCGCTAGA,-0.0593 ± 0.0051
24,GGGACTGA,-0.12 ± 0.06
25,CTGGATGA,0.0537 ± 0.034

row,Sequence,PBM E-score of 8-mer
1,AGAAGGTG,0.386 ± 0.015
2,AGTAGGAG,-0.00869 ± 0.02
3,GGGGTAAA,-0.149 ± 0.03
4,AACAGTCC,0.0405 ± 0.06
5,AGATCGCA,0.2544 ± 0.00049
6,AGGAAGCG,0.0119 ± 0.006
7,ACGGACCT,-0.162 ± 0.11
8,GGCGGGCA,-0.0643 ± 0.058
9,AGGCATCA,-0.13 ± 0.083
10,CGAAGAGA,-0.211 ± 0.018
11,ACGCCCAG,0.108 ± 0.047
12,CCGCACCC,0.226 ± 0.032
13,CGCCGACC,0.0201 ± 0.12
14,TCAGATAA,-0.14 ± 0.017
15,CTGGGTAC,-0.187 ± 0.07
16,AGTGGAAC,-0.0571 ± 0.084
17,AGGTCACT,0.158 ± 0.023
18,ACGGTAGG,-0.181 ± 0.038
19,AGCGAACC,0.0666 ± 0.08
20,TCCGTAGA,-0.244 ± 0.0095
21,TAAACCTA,-0.0943 ± 0.041
22,CAGGCTTA,-0.136 ± 0.015
23,AATCATCC,-0.114 ± 0.037
24,AAACCGTA,-0.0446 ± 0.042
25,ATTCGCTA,0.208 ± 0.024

row,Sequence,PBM E-score of 8-mer
1,AGGGCGCC,0.102 ± 0.048
2,CATACGGC,-0.15 ± 0.044
3,GATATAGA,-0.297 ± 0.049
4,CTCATCAA,-0.0139 ± 0.026
5,CGATAGCA,0.239 ± 0.033
6,ATGATCTA,-0.175 ± 0.091
7,CTCAACCA,-0.0462 ± 0.082
8,CGACCCCA,0.0171 ± 0.0051
9,ACGGTTGG,0.0182 ± 0.044
10,ACCAGTAC,-0.1716 ± 0.00054
11,ACTAGGCT,-0.0965 ± 0.017
12,CACGCACC,0.296 ± 0.034
13,AGGCTAGA,-0.117 ± 0.04
14,CCTTCTAG,-0.0963 ± 0.12
15,CTGTCTGC,0.0103 ± 0.078
16,CAGCCCAC,-0.0939 ± 0.036
17,ACTCTCGA,0.03256 ± 0.00013
18,AGCTAGGG,-0.164 ± 0.0089
19,ACAGTCCG,0.00019 ± 0.0047
20,CGTATTAA,-0.196 ± 0.068
21,ACCCTATG,0.0504 ± 0.014
22,GCGGGGCC,-0.152 ± 0.0011
23,ACTAAGTC,-0.0898 ± 0.092
24,CCCGGCCC,-0.121 ± 0.031
25,TATAAAGA,-0.204 ± 0.061

row,Sequence,PBM E-score of 8-mer
1,ACTATCGC,0.186 ± 0.034
2,CTTCTTAC,0.0673 ± 0.0016
3,AAAGCTGT,0.152 ± 0.044
4,GCCAATAA,-0.0902 ± 0.069
5,AATGAACG,-0.145 ± 0.03
6,AATACGAG,-0.164 ± 0.025
7,AACCTACC,-0.182 ± 0.056
8,AACCATCC,-0.199 ± 0.02
9,AACAAAAT,-0.0482 ± 0.022
10,CAGGCTCC,-0.205 ± 0.057
11,AGGAGGAC,-0.352 ± 0.013
12,CCGCTCTA,0.0199 ± 0.029
13,CAATGGGG,-0.078 ± 0.0016
14,CTGGGGGA,-0.265 ± 0.018
15,CATAGTTC,-0.0464 ± 0.037
16,CGAACACC,0.321 ± 0.011
17,GCATGGCC,-0.201 ± 0.029
18,GCCTTCCC,-0.225 ± 0.017
19,TCGTACGA,0.146 ± 0.12
20,ATATAATC,-0.0774 ± 0.028
21,AACCACGG,0.0188 ± 0.11
22,ATTGGGCC,-0.2 ± 0.0042
23,CCCAGCGG,-0.147 ± 0.024
24,CGGCATTA,-0.0937 ± 0.058
25,CCTCCTGC,0.0807 ± 0.11

row,Sequence,PBM E-score of 8-mer
1,CGCATTAA,-0.108 ± 0.02
2,AACCTTGG,-0.0793 ± 0.032
3,CTGGACAA,0.0472 ± 0.036
4,CAACCCAG,-0.2068 ± 0.00038
5,ACCACCGA,-0.0877 ± 0.15
6,CGACAAAA,0.158 ± 0.063
7,AGTGCGAT,0.4291 ± 0.0025
8,TCTGCCCA,0.117 ± 0.065
9,GGTTTTGA,-0.105 ± 0.0077
10,GGTTCAGA,0.00469 ± 0.016
11,AGAGGACC,-0.186 ± 0.037
12,CTTTTGGA,-0.0247 ± 0.035
13,CCGATACC,-0.0553 ± 0.0017
14,TCCAGAGA,-0.127 ± 0.0013
15,TCAATAAA,-0.0792 ± 0.099
16,CCCTCACA,0.285 ± 0.014
17,ACCATCTC,-0.0155 ± 0.12
18,CCATATGA,-0.159 ± 0.012
19,ATAGAGGC,-0.0893 ± 0.012
20,ATTCAGGA,-0.175 ± 0.018
21,CTTCACGA,0.167 ± 0.043
22,AGTATCGC,0.185 ± 0.0083
23,AAAGAACT,-0.219 ± 0.0037
24,GCATGGTA,-0.134 ± 0.18
25,CTTTTCGA,-0.087 ± 0.018

row,Sequence,PBM E-score of 8-mer
1,GTATCGAA,0.0395 ± 0.046
2,CGAACAAA,0.0155 ± 0.026
3,TATTCGCA,0.369 ± 0.0054
4,GACCTCAA,-0.081 ± 0.086
5,CAGCGAAG,0.195 ± 0.014
6,CCCACCGC,0.1329 ± 0.0009
7,ATCTCCTG,-0.159 ± 0.017
8,ATTGTTCG,0.033 ± 0.038
9,GCACGCCA,0.0542 ± 0.013
10,CAACCGAG,0.0866 ± 0.034
11,GCTCGAAA,-0.0389 ± 0.092
12,GCGGCGCC,0.074 ± 0.059
13,TCTCTAAA,-0.0734 ± 0.017
14,ATGAGGTG,0.354 ± 0.041
15,TGGACACA,0.0442 ± 0.042
16,GCAGGGTA,-0.0833 ± 0.0094
17,AATCCCTG,-0.1 ± 0.0021
18,ACTACACT,0.119 ± 0.038
19,ACGATAAC,0.12 ± 0.0046
20,ATCGCTCG,-0.0361 ± 0.046
21,TTTATAAA,-0.478 ± 0.021
22,ACTGGAAC,-0.184 ± 0.0041
23,AGTCGATG,-0.0189 ± 0.13
24,AAGCCAGT,-0.166 ± 0.066
25,CGATGATC,-0.02 ± 0.078

row,Sequence,PBM E-score of 8-mer
1,ATGTCACG,0.204 ± 0.017
2,ACTCGCGG,0.318 ± 0.019
3,AGGGAGGC,-0.137 ± 0.044
4,AAGACGAG,-0.288 ± 0.056
5,GAGGCAAA,-0.159 ± 0.064
6,AGCGTTGA,0.15 ± 0.039
7,GACGGTGC,0.143 ± 0.026
8,GTGGCCAC,0.225 ± 0.026
9,CGGTTAAA,-0.129 ± 0.16
10,ACTGCATC,-0.11 ± 0.033
11,GAGGTTGA,0.0625 ± 0.014
12,ATTATAAA,-0.12 ± 0.0083
13,CCTAGCGA,0.151 ± 0.028
14,CAGACCAC,-0.113 ± 0.054
15,TACCGAGA,-0.0479 ± 0.058
16,AAGCCCCG,-0.156 ± 0.052
17,GACTCAGA,-0.207 ± 0.019
18,AATTTGAC,-0.01 ± 0.13
19,TTGAGCAA,-0.031 ± 0.046
